The other results are listed elsewhere or left out.
Experiments:
HSkMC = human skeletal muscle cells; assay: cytotoxicity call (relative viability < 0.9); conditions: 10 µM
HepG2 = assay: cytotoxicity call (relative viability < 0.9); conditions: 10 µM
S. aureus RN4220 = assay: growth inhibition call (relative growth <= 0.2); conditions: 50 µM

CC(C)NC(=O)N(C)C[C@@H]1Oc2ccc(NC(=O)CCC(F)(F)F)cc2CC(=O)N([C@@H](C)CO)C[C@H]1C was tested, and the cytotoxicity call (HSkMC) was “inactive”, the cytotoxicity call (HepG2) was “inactive” and the growth inhibition call (S. aureus RN4220) was “inactive”.
For Cc1cnc2c(c1N1CCOCC1)c(=O)n(C)c(=O)n2C, the cytotoxicity call (HSkMC) was “inactive”, the cytotoxicity call (HepG2) was “inactive” and the growth inhibition call (S. aureus RN4220) was “inactive”.
For CC(C)(C)c1cccc(N)c1, the cytotoxicity call (HSkMC) was “inactive”, the cytotoxicity call (HepG2) was “inactive” and the growth inhibition call (S. aureus RN4220) was “inactive”.
In the case of COc1cccc(-c2ccc3c(c2)O[C@H](CN(C)C(=O)C2CC2)[C@@H](C)CN([C@@H](C)CO)S3(=O)=O)c1, the cytotoxicity call (HSkMC) is reported as “inactive”, the cytotoxicity call (HepG2) is reported as “inactive” and the growth inhibition call (S. aureus RN4220) is reported as “inactive”.
For O=C1c2ccncc2C(=O)N1CN1CCOCC1, the cytotoxicity call (HSkMC) was “inactive”, the cytotoxicity call (HepG2) was “inactive” and the growth inhibition call (S. aureus RN4220) was “inactive”.
For CS(=O)(=O)N1CC(=O)Nc2ccccc21, the cytotoxicity call (HSkMC) was “inactive”, the cytotoxicity call (HepG2) was “inactive” and the growth inhibition call (S. aureus RN4220) was “inactive”.
In the case of COc1ccc(NC(=O)N(C)C[C@@H]2OCCCC[C@@H](C)Oc3ccc(NC(=O)Cc4ccccc4)cc3C(=O)N([C@@H](C)CO)C[C@@H]2C)cc1, the cytotoxicity call (HSkMC) is reported as “inactive”, the cytotoxicity call (HepG2) is reported as “inactive” and the growth inhibition call (S. aureus RN4220) is reported as “inactive”.
For C[C@@H]1CCCCO[C@H](CN(C)C(=O)Nc2cccc3ccccc23)[C@H](C)CN([C@@H](C)CO)C(=O)c2cc(NC(=O)Nc3cccc4ccccc34)ccc2O1, the cytotoxicity call (HSkMC) was “inactive”, the cytotoxicity call (HepG2) was “inactive” and the growth inhibition call (S. aureus RN4220) was “inactive”.
With CCCCCCCCCCCCN1CCCCCC1=O the cytotoxicity call (HSkMC) was “inactive”, the cytotoxicity call (HepG2) was “inactive” and the growth inhibition call (S. aureus RN4220) was “inactive”.
For CC(=O)O[C@H]1CC(C)(C)C[C@H]2[C@]13CO[C@@]21CC[C@H]2[C@@]4(C)CC[C@H](O[C@@H]5OC[C@H](O[C@@H]6O[C@H](CO)[C@@H](O)[C@H](O)[C@H]6O[C@@H]6OC[C@@H](O[C@@H]7O[C@H](CO)[C@@H](O)[C@H](O)[C@H]7O)[C@H](O)[C@H]6O)[C@H](O)[C@H]5O[C@@H]5O[C@H](CO)[C@@H](O)[C@H](O)[C@H]5O)[C@@](C)(CO)[C@@H]4CC[C@@]2(C)[C@]1(C)C[C@H]3O, the cytotoxicity call (HSkMC) was “active”, the cytotoxicity call (HepG2) was “active” and the growth inhibition call (S. aureus RN4220) was “inactive”.
C[C@@H]1CN([C@@H](C)CO)C(=O)CCCn2nncc2CO[C@@H]1CN(C)S(=O)(=O)c1ccc(Oc2ccccc2)cc1 was tested, and the cytotoxicity call (HSkMC) was “inactive”, the cytotoxicity call (HepG2) was “inactive” and the growth inhibition call (S. aureus RN4220) was “inactive”.
With Cc1ccc(S(=O)(=O)N(C)C[C@@H]2Oc3cc(C#Cc4ccncc4)ccc3S(=O)(=O)N([C@@H](C)CO)C[C@@H]2C)cc1 the cytotoxicity call (HSkMC) was “inactive”, the cytotoxicity call (HepG2) was “active” and the growth inhibition call (S. aureus RN4220) was “inactive”.
With C[C@@H]1CCCCO[C@@H](CN(C)C(=O)Nc2ccc(C(F)(F)F)cc2)[C@@H](C)CN([C@H](C)CO)C(=O)c2cc(N(C)C)ccc2O1 the cytotoxicity call (HSkMC) was “inactive”, the cytotoxicity call (HepG2) was “inactive” and the growth inhibition call (S. aureus RN4220) was “inactive”.
In the case of C[C@@H]1CN([C@@H](C)CO)C(=O)c2cc(NC(=O)Nc3cccc4ccccc34)ccc2O[C@@H]1CN(C)Cc1ccncc1, the cytotoxicity call (HSkMC) is reported as “inactive”, the cytotoxicity call (HepG2) is reported as “inactive” and the growth inhibition call (S. aureus RN4220) is reported as “inactive”.
With Cc1noc(C)c1NC(=O)Nc1ccc2c(c1)C(=O)N([C@H](C)CO)C[C@@H](C)[C@@H](CN(C)Cc1ccncc1)OCCCC[C@@H](C)O2 the cytotoxicity call (HSkMC) was “inactive”, the cytotoxicity call (HepG2) was “inactive” and the growth inhibition call (S. aureus RN4220) was “inactive”.
With COc1ccc(S(=O)(=O)Nc2cccc3c2O[C@H](CN(C)Cc2ccc(Cl)c(Cl)c2)[C@H](C)CN([C@@H](C)CO)C3=O)cc1 the cytotoxicity call (HSkMC) was “inactive”, the cytotoxicity call (HepG2) was “active” and the growth inhibition call (S. aureus RN4220) was “inactive”.
For O=C(C[C@H]1CC[C@@H]2[C@H](COC[C@@H](O)CN2C(=O)c2ccncc2)O1)NCc1ccc(-c2ccccc2)cc1, the cytotoxicity call (HSkMC) was “inactive”, the cytotoxicity call (HepG2) was “inactive” and the growth inhibition call (S. aureus RN4220) was “inactive”.
With NNC(=O)c1ccncc1.Nc1ccc(C(=O)O)c(O)c1 the cytotoxicity call (HSkMC) was “inactive”, the cytotoxicity call (HepG2) was “active” and the growth inhibition call (S. aureus RN4220) was “inactive”.
In the case of C[C@H]1CN([C@@H](C)CO)C(=O)Cc2cc(NC(=O)Nc3cccc4ccccc34)ccc2O[C@@H]1CN(C)CC1CCCCC1, the cytotoxicity call (HSkMC) is reported as “active”, the cytotoxicity call (HepG2) is reported as “active” and the growth inhibition call (S. aureus RN4220) is reported as “inactive”.
C[C@H](CO)N1C[C@H](C)[C@H](CN(C)S(=O)(=O)c2cn(C)cn2)Oc2ccc(NC(=O)Cc3ccccc3)cc2CC1=O was tested, and the cytotoxicity call (HSkMC) was “inactive”, the cytotoxicity call (HepG2) was “inactive” and the growth inhibition call (S. aureus RN4220) was “inactive”.
CC(C)CC#Cc1ccc2c(c1)O[C@@H](CN(C)C(=O)c1ccccn1)[C@H](C)CN([C@@H](C)CO)S2(=O)=O was tested, and the cytotoxicity call (HSkMC) was “inactive”, the cytotoxicity call (HepG2) was “inactive” and the growth inhibition call (S. aureus RN4220) was “inactive”.
In the case of CCN(CC)c1ccc2c(-c3ccc(S(=O)(=O)O)cc3S(=O)(=O)O)c3ccc(N(CC)CC)cc3[o+]c2c1, the cytotoxicity call (HSkMC) is reported as “inactive”, the cytotoxicity call (HepG2) is reported as “inactive” and the growth inhibition call (S. aureus RN4220) is reported as “inactive”.
C[C@@H]1CCCCO[C@@H](CN(C)C(=O)C2CCCCC2)[C@@H](C)CN([C@@H](C)CO)C(=O)c2cc(NC(=O)CCC(F)(F)F)ccc2O1 was tested, and the cytotoxicity call (HSkMC) was “inactive”, the cytotoxicity call (HepG2) was “inactive” and the growth inhibition call (S. aureus RN4220) was “inactive”.
C[C@H]1CN([C@@H](C)CO)C(=O)c2cc(NS(=O)(=O)c3ccccc3)ccc2O[C@H]1CN(C)CC1CC1 was tested, and the cytotoxicity call (HSkMC) was “inactive”, the cytotoxicity call (HepG2) was “inactive” and the growth inhibition call (S. aureus RN4220) was “inactive”.
In the case of C[C@@H]1CN([C@@H](C)CO)C(=O)CCCn2cc(nn2)CO[C@@H]1CN(C)C(=O)Nc1ccnc(N2CCOCC2)c1, the cytotoxicity call (HSkMC) is reported as “inactive”, the cytotoxicity call (HepG2) is reported as “inactive” and the growth inhibition call (S. aureus RN4220) is reported as “inactive”.
